Assay results reported in PubChem BioAssay (NCATS).
Several values for one entry are separate records, joined by “and”; a condition that tells them apart may be missing. Identical values can stand only once. The shares of active, inactive and inconclusive entries below differ from those in the screen. For some assays here: Where the call is inconclusive, the potency comes from a doubtful curve fit. Activity calls are given as the source filed them. Unless noted, the call rests on the fitted dose curve; in most records, active means well fitted curve in the direction sought with a large enough effect; inconclusive means small, poorly fitted or top-dose-only effect, or another doubt; inactive means no such curve, though single readings can be large; an effect the other way counts as inactive or inconclusive. Where a SMILES comes first, the peptide text is derived from it. The star is where a group is joined. Cbz = O=C(OCc1ccccc1)*; CH2Cl = ClC*

What was measured:
[1] = target: Cytochrome P450 2D6 (Homo sapiens) (UniProt P10635); assay: Cytochrome P450 family 2 subfamily D member 6 (CYP2D6) small molecule antagonists: luciferase biochemical (cell-free) qHTS assay (AID 1645840; active means well fitted curve in the direction sought with a large enough effect in the repeat runs; inconclusive means weak or mixed curves; inactive means no such curve, though single readings can be large; an effect the other way counts as inactive or inconclusive; further: nearly all actives have a fitted effect of over 55% in size)
Outline: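 P450-Glo CYP2D6 system: proluciferin substrate converted by enzyme to luciferin, read by luminescence proportional to activity. Enzyme-substrate mix with compound 10 min at room temperature, then NADPH regeneration 1 h before detection reagent.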

[2] = Primary redox qHTS assay for identification of artifact compounds. (AID 1845223); conditions: Amplex Red/HRP redox cycling with DTT, fluorescence; series mostly up to 53.8 µM
Outline: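 Redox-cycling detection via DTT (250 uM final) oxidation coupled to Amplex Red (25 uM)/HRP (250 mU/mL) in HBSS. 15 min preincubation plus 30 min after DTT, room temperature. Ex/Em 525/598 nm; 4-parameter Hill fit against DMSO and 10 uM DA3003.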

[3] = qHTS of pediatric cancer cell lines to identify multiple opportunities for drug repurposing: Primary screen for DAOY cells (AID 1347090); conditions: DAOY medulloblastoma viability, CellTiter-Glo luminescence, 48 h; activity change, negative = cytotoxic: at 46 µM (top of the series); further: nearly all actives have a fitted effect of over 55% in size
Outline: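 Eight- or eleven-point concentration series, 48 h treatment at 37 degrees C in growth media; readout CellTiter-Glo luminescence. Potency and efficacy were taken from the concentration-response curves.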

[4] = qHTS of pediatric cancer cell lines to identify multiple opportunities for drug repurposing: Primary screen for BT-37 cells (AID 1347094)
Outline: (§1)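 Quantitative HTS format: each compound titrated (MIPE 11 points from 0.78 nM, NPC 8 points from 0.59 nM) onto cells plated 5 hours earlier. After 48 h at 37 degrees C, CellTiter-Glo luminescence was recorded.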

[5] = qHTS of pediatric cancer cell lines to identify multiple opportunities for drug repurposing: Primary screen for NB1643 cells (AID 1347099); further: nearly all actives have a fitted effect of over 50% in size
Outline: as §1

[6] = qHTS of pediatric cancer cell lines to identify multiple opportunities for drug repurposing: Primary screen for BT-12 cells (AID 1347101); further: nearly all actives have a fitted effect of over 25% in size
Outline: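 Cells (500-1,000/well) rested 5 h, then received compounds for 48 h; metabolically active cells were measured by CellTiter-Glo luminescence. Final concentrations spanned up to 46 µM (MIPE, 11-point) or 0.59 nM-46 µM (NPC, 8-point) in primary screens, 11-point in follow-ups.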

[7] = qHTS of pediatric cancer cell lines to identify multiple opportunities for drug repurposing: Primary screen for Rh18 cells (AID 1347102); further: nearly all actives have a fitted effect of over 65% in size
Outline: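 Cells (500-1,000/well) in growth media were settled 5 h at 37 degrees C, then given compounds for 48 h. Viability was read as CellTiter-Glo luminescence. Primary runs used MIPE at 11 points (0.78 nM-46 µM) and NPC at 8 points (0.59 nM-46 µM); follow-ups used 11 points.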

[8] = qHTS of pediatric cancer cell lines to identify multiple opportunities for drug repurposing: Primary screen for RD cells (AID 1347104); conditions: RD rhabdomyosarcoma viability, CellTiter-Glo luminescence, 48 h; activity change, negative = cytotoxic: at 46 µM (top of the series); further: nearly all actives have a fitted effect of over 55% in size
Outline: as §1

[9] = qHTS of pediatric cancer cell lines to identify multiple opportunities for drug repurposing: Primary screen for Rh41 cells (AID 1347108); further: nearly all actives have a fitted effect of over 70% in size
Outline: as §1

UISO = assay: qHTS assay to identify novel small-molecules to repurpose for Merkel cell carcinoma treatment (AID 1296009); conditions: MCC and control cell lines, CellTiter-Glo viability, 72 h; series mostly up to 46 µM; further: nearly all actives have a fitted effect of over 60% in size
Outline: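 Luminescence from CellTiter-Glo, read 10 min after addition at room temperature, reported viability following a 72 hr, 37 degree celsius treatment with NPC or MIPE compounds in titration; values normalized to plate controls.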

[10] = system: Zika virus NS2B-NS3 protease (linked construct); assay: Primary screen NINDS Rhodamine qHTS for Zika virus inhibitors (AID 1347160); conditions: activity change, negative = inhibition: at 57.1 µM (top of the series) unless noted; further: nearly all actives have a fitted effect of over 55% in size
Outline: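 Enzyme (25 nM, linked NS2B-NS3) was preincubated 15 min with compound in 10 mM Tris-HCl pH 8.0, 0.01% Tween 20. Rhodamine110 substrate (1.5 microM) was then added and fluorescence read at start and after 15 min.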

[11] = Primary fluorescence-based thiol-reactive (MSTI) qHTS assay for identification of artifact compounds. (AID 1845221);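 further: thiol-reactive compounds lower the probe fluorescence signal; nearly all actives have a fitted effect of over 65% in size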
Outline: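 Reactivity toward the thiol probe MSTI (4 uM) is scored by fluorescence at Ex/Em 525/598 nm after 1 h at room temperature. Acetyl-MSTI and MSTI define the activity scale.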

[12] = Quantitative High-Throughput drug screen in 47 multiple myeloma cell lines against the NCATS MIPE library collection: Karpas417_ECACC cell viability assay (AID 1918961); conditions: Karpas417 myeloma viability, CellTiter-Glo ATP luminescence, 48 h; series mostly up to 45.8 µM
Outline: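 Relative luminescence from CellTiter-Glo served as the viability signal, referenced to DMSO-treated (100%) and cell-free medium (0%) controls. Treatment lasted 48 hours at 37C with 500 cells per well.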

[13] = Quantitative High-Throughput drug screen in 47 multiple myeloma cell lines against the NCATS MIPE library collection: JIM1_ECACC cell viability assay (AID 1918964)
Outline: (§2)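 Luminescent ATP measurement with CellTiter-Glo gives viability, scaled between DMSO-only wells (100%) and media-only wells (0%). Cells, 500 per well, faced library compounds for 48 hours at 37C.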

[14] = Quantitative High-Throughput drug screen in 47 multiple myeloma cell lines against the NCATS MIPE library collection: KMS21BM_JCRB cell viability assay (AID 1918974); conditions: ATP luminescence, 48 h; viability: at 45.8 µM (top of the series)
Outline: as §2

[15] = qHTS for identification of novel therapeutic agents for treatment of microphthalmiaassociated transcription factor (MiT) renal cell carcinoma (RCC) (AID 1963991; calls by dose curve); conditions: TFE3-RCC UOK109 viability, CellTiter-Glo, 48 h; active = Z-AUC below -0.8 in all three lines
Outline: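 UOK109/UOK124/UOK145 (TFE3 fusions, three partners); 500 cells/well; MIPE v4.0, 1912 cpds, 11 conc.; 48 h, 37 C; CellTiter-Glo, 15 min RT; lum. Norm.: DMSO 100%, empty 0%.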

[16] = qHTS to identify inhibitors of the type 1 interferon - major histocompatibility complex class I in skeletal muscle: primary screen against the NCATS Mechanism Interrogation Plate v5.0 (MIPE) Libary (AID 1347411); conditions: iHSKM cells + IFN-b, HiBiT-tagged MHC-I luminescence, 24 h; activity change, negative = inhibition: at 45.8 µM (top of the series); further: nearly all actives have a fitted effect of over 65% in size
Outline: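 HLA-B HiBit myoblasts, dexamethasone-free medium + 4 ng/ml IFN-b, 24 h compound, 11-pt 1:3 from 46 uM final. Readout: Nano-Glo HiBiT lytic luminescence after 10 min lysis, RT.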

[17] = qHTS assay to identify inhibitors of the type 1 interferon - major histocompatibility complex class I in skeletal muscle: Counter screen cell viability and HiBit confirmation (AID 1347412); conditions: iHSKM muscle cells + IFN-b, HiBiT or CellTiter-Glo, 24 h; further: nearly all actives have a fitted effect of over 60% in size
Outline: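 Myoblasts (C25cl48, HLA-B HiBiT) seeded in medium without dexamethasone, IFN-b 4 ng/ml added except unstimulated columns; 1 hr later compounds pinned (12-pt 1:3, top 46 uM final). Incubated 24 hrs, lysed 10 min, luminescence measured.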
Potency means the concentration at half of the fitted maximal effect; tags describe the fitted curve by direction and shape.

Chain of UniProt P10635 (P10635 whole entry, looked up): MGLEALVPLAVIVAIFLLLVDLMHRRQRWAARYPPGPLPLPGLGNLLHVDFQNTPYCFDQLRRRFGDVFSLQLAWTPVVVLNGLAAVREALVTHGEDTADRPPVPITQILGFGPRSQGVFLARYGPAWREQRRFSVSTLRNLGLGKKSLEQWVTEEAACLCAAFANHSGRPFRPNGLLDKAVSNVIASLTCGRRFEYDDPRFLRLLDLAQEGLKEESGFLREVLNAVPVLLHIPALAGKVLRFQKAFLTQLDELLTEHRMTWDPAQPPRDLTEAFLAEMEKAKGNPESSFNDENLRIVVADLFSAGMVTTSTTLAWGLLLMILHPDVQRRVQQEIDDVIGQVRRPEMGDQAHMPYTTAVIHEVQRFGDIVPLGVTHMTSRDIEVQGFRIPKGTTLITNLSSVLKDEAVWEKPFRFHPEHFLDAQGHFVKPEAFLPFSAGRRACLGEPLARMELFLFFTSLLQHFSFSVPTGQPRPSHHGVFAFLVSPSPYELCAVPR

CC(=O)NC[C@H]1CN(c2ccc(N3CCN(C(=O)CO)CC3)c(F)c2)C(=O)O1
Potency [1]: inactive

C=C1C(=O)O[C@@H]2C/C(C)=C\C(=O)/C=C(\C)[C@@H](OC(=O)/C(C)=C\C)[C@H](O)[C@@H]12
Potency [2]: inactive

NC(=O)c1cnc(N[C@@H]2CCCC[C@H]2N)nc1Nc1cccc(-n2nccn2)c1
Potency [2]: inconclusive: 37.7 µM [activator, partial curve, poor fit]

Cc1ccccc1C(=O)Nc1ccc(C(=O)N2CCCC(N(C)C)c3ccccc32)cc1 (stereo not drawn)
Potency [3]: inconclusive: 26.6 µM [cytotoxic, single point] | Potency [4]: inconclusive: 24.6 µM [cytotoxic, partial curve] | Potency [5]: inconclusive: 4.22 µM [cytotoxic, partial curve] | Potency [6]: inconclusive: 9.78 µM [cytotoxic, partial curve] | Potency [7]: inconclusive: 11.9 µM [cytotoxic, partial curve] | Potency [8]: inconclusive: 26.6 µM [cytotoxic, single point] | Potency [9]: active: 16.8 µM | Potency (UISO): inactive

CC(C)C[C@H](NC(=O)CNC(=O)OCc1ccccc1)C(=O)N[C@@H](Cc1ccccc1)C(=O)CCl (Cbz-Gly-Leu-Phe-CH2Cl)
Potency [10]: inactive

N#Cc1ccc2[nH]c(O)c(-c3ccc(CN4CCOCC4)cn3)c2c1
Potency [11]: inconclusive: 21.2 µM [inhibitor, single point] and inconclusive: 11.9 µM [inhibitor, partial curve] | Potency [2]: inactive

CC1(C)CC(=O)C2=C(C1)NC(=S)NC2c1cccc(O)c1 (stereo not drawn)
Potency [1]: inconclusive: 8.49 µM [inhibitor, partial curve] | Potency [2]: inactive

C=C1C(=O)OC2/C=C(\C)CC3C=C(CC/C=C(\C)CCC12)C(=O)O3 (stereo not drawn)
Potency [10]: inactive

NC(=O)c1cnc(NCCc2ccc(O)c(Cl)c2)nc1NCc1ccccc1
Potency [1]: active: 15.1 µM

CC(=O)Oc1ccc(C2(c3ccc(OC(C)=O)cc3)Oc3ccccc3NC2=O)cc1
Potency [4]: inconclusive: 15.5 µM [cytotoxic, partial curve] | Potency [5]: inconclusive: 2.66 µM [cytotoxic, full curve] | Potency [8]: inconclusive: 23.7 µM [cytotoxic, single point] | Potency [9]: inconclusive: 16.8 µM [cytotoxic, single point] | Potency (UISO): inconclusive: 18.8 µM [inhibitor, partial curve, poor fit]

CCN1CCC[C@@H]1CNC(=O)c1ccc2c(c1)NC(=O)/C(=C/c1ccccc1F)S2
Potency [1]: inconclusive: 30.1 µM [inhibitor, single point] | Potency [11]: inactive

C=CCNC1=C2C[C@@H](C)C[C@H](OC)[C@@H](O)[C@@H](C)C=C(C)[C@H](OC(N)=O)[C@@H](OC)C=CC=C(C)C(=O)NC(=CC1=O)C2=O
Potency [7]: active: 0.833 µM | Potency [9]: active: 3.72 µM | Potency [12]: inconclusive: 33.2 µM [rising, partial curve, poor fit] | Potency [13]: active: 0.662 µM | Potency [14]: inconclusive: 37.2 µM [rising, partial curve, poor fit] | Potency [15]: inconclusive: 13.2 µM [falling, partial curve] | Potency (UISO): active: 1.48 µM

COc1cc(N2CCOCC2)ccc1Nc1ncc(F)c(Nc2ccccc2NS(C)(=O)=O)n1
Potency [1]: inconclusive: 21.3 µM [inhibitor, single point] | Potency [11]: active: 2.38 µM

CC(C)C[C@H](NC(=O)CNC(=O)[C@H](Cc1ccc(O)cc1)NC(=O)[C@H](CO)NC(=O)[C@H](Cc1c[nH]c2ccccc12)NC(=O)[C@H](Cc1cnc[nH]1)NC(=O)[C@@H]1CCC(=O)N1)C(=O)N[C@@H](CCCN=C(N)N)C(=O)N1CCC[C@H]1C(=O)NCC(N)=O (stereo in doubt)
Potency [3]: inactive

CCCCCCCCCCCCCCNCCO
Potency [4]: inactive | Potency [6]: inactive

O=C(c1ccccc1)c1c(O)cc(O)cc1O[C@@H]1O[C@H](CO)[C@@H](O)[C@H](O)[C@H]1O
Potency [10]: inactive | Potency [2]: inconclusive: 20.7 µM [activator, single point]

CS(=O)(=O)c1ccc([C@H](CC2CCCC2)C(=O)Nc2nccs2)cc1
Potency [10]: inconclusive: 39.8 µM [inhibitor, single point] | Potency [11]: inactive

C=C1C(=O)O[C@@H]2CC(C)=C([C@@H](C)CCCO)[C@@H](OC(=O)C(C)C)[C@H]12
Potency [11]: active: 14.7 µM | Potency [2]: inconclusive: 3.29 µM [activator, full curve]

CC[C@@H](C)[C@@H]1OC2(C=C[C@H]1C)C[C@@H]1C[C@H](C/C=C(\C)[C@H](O[C@H]3C[C@H](OC)[C@H](O[C@H]4C[C@H](OC)[C@H](NC(C)=O)[C@H](C)O4)[C@H](C)O3)[C@H](C)/C=C/C=C3\CO[C@H]4[C@H](O)C(C)=C[C@@H](C(=O)O1)[C@@]34O)O2 (stereo partly drawn)
Potency [11]: inconclusive: 9.27 µM [inhibitor, partial curve]

CC(C)[C@@H](CS(=O)(=O)C(C)C)N1C(=O)[C@@](C)(CC(=O)O)C[C@H](c2cccc(Cl)c2)[C@H]1c1ccc(Cl)cc1
Potency [10]: inconclusive: 17.8 µM [inhibitor, partial curve, poor fit] | Potency [16]: inactive | Potency [11]: inactive | Potency [2]: inconclusive: 2.99 µM [activator, full curve, poor fit]

C#CC[C@H](c1nc2cc(Cl)ccc2c(=O)n1Nc1ccccc1)N(CCCN)C(=O)c1cccc(Cl)c1F
Potency [16]: inconclusive: 37 µM [inhibitor, single point]

CCc1nc(C(N)=O)c(Nc2ccc(N3CCC(N4CCN(C)CC4)CC3)c(OC)c2)nc1NC1CCOCC1
Potency [16]: inconclusive: 0.466 µM [inhibitor, full curve, poor fit] | Potency [11]: inconclusive: 2.07 µM [inhibitor, full curve] | Potency ([17]; HiBiT): inconclusive: 1.57 µM [inhibitor, full curve] | Potency ([17]; Viability): inconclusive: 0.557 µM [cytotoxic, full curve]
